Experimental data: the supplement of paper PMC4604168 (melanoma cell lines)
The list shows a part of the results. Most values come without repeats; read them as rough.

Legend:
Test in all cases: cell count relative to DMSO control; melanoma cells; higher = more viable cells
Details in all cases: library dose: low library concentration; 72 h
WM115 = system: WM115
WM1716 = system: WM1716
WM1745 = system: WM1745
WM3526 = system: WM3526
WM3619 = system: WM3619
WM451Lu = system: WM451Lu
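Further: cell number obtained by counting DAPI-stained nuclei in high-throughput microscope images with image analysis software, screen run in 1,536-well plates.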

SMILES	cell count (WM115)	cell count (WM1716)	cell count (WM1745)	cell count (WM3526)	cell count (WM3619)	cell count (WM451Lu)
CO[C@H]1C[C@@H]2CC[C@@H](C)[C@@](O)(O2)C(=O)C(=O)N2CCCC[C@H]2C(=O)O[C@H]([C@H](C)C[C@@H]2CC[C@@H](OCCO)[C@H](OC)C2)CC(=O)[C@H](C)/C=C(\C)[C@@H](O)[C@@H](OC)C(=O)[C@H](C)C[C@H](C)/C=C/C=C/C=C/1C [everolimus] + COc1cc(N2CCC(N3CCN(C)CC3)CC2)ccc1Nc1ncc(Cl)c(Nc2ccccc2S(=O)(=O)C(C)C)n1 [NVP-TAE684] (first compound 0.02 µM, partner dose 0.08 µM)	82.3%	76.9%	73%	56.9%	48%	61.3%
CC(=O)O[C@@]12CO[C@@H]1C[C@H](O)[C@@]1(C)C(=O)[C@H](O)C3=C(C)[C@@H](OC(=O)[C@H](O)[C@@H](NC(=O)OC(C)(C)C)c4ccccc4)C[C@@](O)([C@@H](OC(=O)c4ccccc4)[C@H]21)C3(C)C [Docetaxel] + CCCCCCCCCCCC1=C(O)C(=O)C=C(O)C1=O [Embelin] (first compound 0.0001 µM, partner dose 1.2 µM)	59.5%	34.7%	45.6%	27.7%	70.3%	50.7%
CO[C@H]1C[C@@H]2CC[C@@H](C)[C@@](O)(O2)C(=O)C(=O)N2CCCC[C@H]2C(=O)O[C@H]([C@H](C)C[C@@H]2CC[C@@H](OCCO)[C@H](OC)C2)CC(=O)[C@H](C)/C=C(\C)[C@@H](O)[C@@H](OC)C(=O)[C@H](C)C[C@H](C)/C=C/C=C/C=C/1C [everolimus] + Oc1nc(-c2ccc(C(F)(F)F)cc2)nc2c1CSCC2 [XAV939] (first compound 0.02 µM, partner dose 2 µM)	74.7%	50.2%	91.8%	65.9%	62.4%	73%
CO[C@H]1C[C@@H]2CC[C@@H](C)[C@@](O)(O2)C(=O)C(=O)N2CCCC[C@H]2C(=O)O[C@H]([C@H](C)C[C@@H]2CC[C@@H](OCCO)[C@H](OC)C2)CC(=O)[C@H](C)/C=C(\C)[C@@H](O)[C@@H](OC)C(=O)[C@H](C)C[C@H](C)/C=C/C=C/C=C/1C [everolimus] + CN(C)S(=O)(=O)c1ccc2c(c1)/C(=C/c1cc3c([nH]1)CCCC3)C(=O)N2 [SU6656] (first compound 0.02 µM, partner dose 0.4 µM)	60%	104%	95.2%	73.4%	110%	88.8%
Nc1nc(F)nc2c1ncn2[C@@H]1O[C@H](CO)[C@@H](O)[C@@H]1O [fludarabine] + Cn1nnc2c(C(N)=O)ncn2c1=O [temozolomide] (first compound 0.2 µM, partner dose 2 µM)	90.4%	91.5%	112%	27.4%	102%	40.2%
CC(=O)O[C@@]12CO[C@@H]1C[C@H](O)[C@@]1(C)C(=O)[C@H](O)C3=C(C)[C@@H](OC(=O)[C@H](O)[C@@H](NC(=O)OC(C)(C)C)c4ccccc4)C[C@@](O)([C@@H](OC(=O)c4ccccc4)[C@H]21)C3(C)C [Docetaxel] + C=CCNC1=C2C[C@@H](C)C[C@H](OC)[C@H](O)[C@@H](C)/C=C(\C)[C@H](OC(N)=O)[C@@H](OC)/C=C\C=C(/C)C(=O)NC(=CC1=O)C2=O [Tanespimycin] (first compound 0.0001 µM, partner dose 0.002 µM)	60.3%	40.4%	61.9%	32.6%	63.2%	53.4%
CO[C@H]1C[C@@H]2CC[C@@H](C)[C@@](O)(O2)C(=O)C(=O)N2CCCC[C@H]2C(=O)O[C@H]([C@H](C)C[C@@H]2CC[C@@H](OCCO)[C@H](OC)C2)CC(=O)[C@H](C)/C=C(\C)[C@@H](O)[C@@H](OC)C(=O)[C@H](C)C[C@H](C)/C=C/C=C/C=C/1C [everolimus] + O=c1cc(-c2cccc3c2Sc2ccccc2S3)oc(N2CCOCC2)c1 [KU55933] (first compound 0.02 µM, partner dose 1 µM)	88%	95.8%	88.7%	74.3%	85.2%	74.4%
CO[C@H]1C[C@@H]2CC[C@@H](C)[C@@](O)(O2)C(=O)C(=O)N2CCCC[C@H]2C(=O)O[C@H]([C@H](C)C[C@@H]2CC[C@@H](OCCO)[C@H](OC)C2)CC(=O)[C@H](C)/C=C(\C)[C@@H](O)[C@@H](OC)C(=O)[C@H](C)C[C@H](C)/C=C/C=C/C=C/1C [everolimus] + Cn1cc(/C=C2\C(=O)Nc3cccnc32)c2ccccc21 [GW441756] (first compound 0.02 µM, partner dose 0.4 µM)	73.4%	66.3%	80.5%	68.4%	79.6%	70.9%
CO[C@H]1C[C@@H]2CC[C@@H](C)[C@@](O)(O2)C(=O)C(=O)N2CCCC[C@H]2C(=O)O[C@H]([C@H](C)C[C@@H]2CC[C@@H](OCCO)[C@H](OC)C2)CC(=O)[C@H](C)/C=C(\C)[C@@H](O)[C@@H](OC)C(=O)[C@H](C)C[C@H](C)/C=C/C=C/C=C/1C [everolimus] + Cc1cc(N2CCOCC2)cc2[nH]c(-c3c(NC[C@@H](O)c4cccc(Cl)c4)cc[nH]c3=O)nc12 [BMS536924] (first compound 0.02 µM, partner dose 0.2 µM)	78.2%	75.5%	72.5%	62%	63.9%	62.9%
CC(=O)O[C@@]12CO[C@@H]1C[C@H](O)[C@@]1(C)C(=O)[C@H](O)C3=C(C)[C@@H](OC(=O)[C@H](O)[C@@H](NC(=O)OC(C)(C)C)c4ccccc4)C[C@@](O)([C@@H](OC(=O)c4ccccc4)[C@H]21)C3(C)C [Docetaxel] + Cn1c(Nc2ccc(C(F)(F)F)cc2)nc2cc(Oc3ccnc(-c4ncc(C(F)(F)F)[nH]4)c3)ccc21 [CHIR265] (first compound 0.0001 µM, partner dose 0.08 µM)	25.9%	21.6%	39.6%	13.1%	57.5%	39%
Nc1ccn([C@@H]2O[C@H](CO)[C@@H](O)C2(F)F)c(=O)n1 [gemcitabine] + Cc1cc([N+](=O)[O-])ccc1NS(=O)(=O)c1cc(Cl)ccc1Cl [FH535] (first compound 0.0004 µM, partner dose 1 µM)	91.6%	80.2%	66%	97.8%	84.7%	115%
CC(=O)O[C@@]12CO[C@@H]1C[C@H](O)[C@@]1(C)C(=O)[C@H](O)C3=C(C)[C@@H](OC(=O)[C@H](O)[C@@H](NC(=O)OC(C)(C)C)c4ccccc4)C[C@@](O)([C@@H](OC(=O)c4ccccc4)[C@H]21)C3(C)C [Docetaxel] + CN(NC(=O)CC(=O)NN(C)C(=S)c1ccccc1)C(=S)c1ccccc1 [STA4783] (first compound 0.0001 µM, partner dose 0.006 µM)	45.9%	26.2%	40.3%	30.2%	53.6%	38.4%
CC(=O)c1c(C)c2cnc(Nc3ccc(N4CCNCC4)cn3)nc2n(C2CCCC2)c1=O [palbociclib] + COc1cc(N2CCC(N3CCN(C)CC3)CC2)ccc1Nc1ncc(Cl)c(Nc2ccccc2S(=O)(=O)C(C)C)n1 [NVP-TAE684] (first compound 0.04 µM, partner dose 0.08 µM)	64.7%	56.6%	71.3%	50.7%	62.4%	61.9%
Nc1nc(F)nc2c1ncn2[C@@H]1O[C@H](CO)[C@@H](O)[C@@H]1O [fludarabine] + C=CCNC1=C2C[C@@H](C)C[C@H](OC)[C@H](O)[C@@H](C)/C=C(\C)[C@H](OC(N)=O)[C@@H](OC)/C=C\C=C(/C)C(=O)NC(=CC1=O)C2=O [Tanespimycin] (first compound 0.2 µM, partner dose 0.002 µM)	97%	95.2%	89.5%	45.5%	88.3%	62.7%
CO[C@H]1C[C@@H]2CC[C@@H](C)[C@@](O)(O2)C(=O)C(=O)N2CCCC[C@H]2C(=O)O[C@H]([C@H](C)C[C@@H]2CC[C@@H](OCCO)[C@H](OC)C2)CC(=O)[C@H](C)/C=C(\C)[C@@H](O)[C@@H](OC)C(=O)[C@H](C)C[C@H](C)/C=C/C=C/C=C/1C [everolimus] + COc1cc(Nc2ncc(F)c(Nc3ccc4c(n3)NC(=O)C(C)(C)O4)n2)cc(OC)c1OC [Tamatinib] (first compound 0.02 µM, partner dose 0.4 µM)	72.8%	80.7%	66.8%	72.5%	95.4%	80.3%
Nc1ccn([C@@H]2O[C@H](CO)[C@@H](O)C2(F)F)c(=O)n1 [gemcitabine] + Nc1nc(F)nc2c1ncn2[C@@H]1O[C@H](CO)[C@@H](O)[C@@H]1O [fludarabine] (first compound 0.0004 µM, partner dose 0.2 µM)	86.7%	92.2%	59.3%	25%	49.6%	54.7%
Nc1ncn([C@H]2C[C@H](O)[C@@H](CO)O2)c(=O)n1 [decitabine] + C=CCn1c(=O)c2cnc(Nc3ccc(N4CCN(C)CC4)cc3)nc2n1-c1cccc(C(C)(C)O)n1 [MK1775] (first compound 0.1 µM, partner dose 0.02 µM)	70.3%	64%	91.4%	124%	76.4%	76.7%
CO[C@H]1C[C@@H]2CC[C@@H](C)[C@@](O)(O2)C(=O)C(=O)N2CCCC[C@H]2C(=O)O[C@H]([C@H](C)C[C@@H]2CC[C@@H](OCCO)[C@H](OC)C2)CC(=O)[C@H](C)/C=C(\C)[C@@H](O)[C@@H](OC)C(=O)[C@H](C)C[C@H](C)/C=C/C=C/C=C/1C [everolimus] + c1cc(-c2cnn3cc(-c4ccc(OCCN5CCCCC5)cc4)cnc23)ccn1 [Dorsomorphin] (first compound 0.02 µM, partner dose 0.4 µM)	79.3%	86.6%	90.5%	66.5%	93.1%	77.4%
CO[C@H]1C[C@@H]2CC[C@@H](C)[C@@](O)(O2)C(=O)C(=O)N2CCCC[C@H]2C(=O)O[C@H]([C@H](C)C[C@@H]2CC[C@@H](OCCO)[C@H](OC)C2)CC(=O)[C@H](C)/C=C(\C)[C@@H](O)[C@@H](OC)C(=O)[C@H](C)C[C@H](C)/C=C/C=C/C=C/1C [everolimus] + COC(=O)c1sccc1S(=O)(=O)Nc1ccc(Nc2ccccc2)cc1OC [GSK0660] (first compound 0.02 µM, partner dose 1 µM)	76.2%	93.2%	74.4%	53.2%	75.9%	70.3%
Nc1ncn([C@H]2C[C@H](O)[C@@H](CO)O2)c(=O)n1 [decitabine] + COC(=O)c1sccc1S(=O)(=O)Nc1ccc(Nc2ccccc2)cc1OC [GSK0660] (first compound 0.1 µM, partner dose 1 µM)	83.6%	69.5%	95.6%	90.7%	82.6%	93%
